In PubChem BioAssay AID1240 (Sanford-Burnham Center for Chemical Genomics, 2008):
Out of some 50,000 compounds screened, about 800 (1.6%) showed an effect of 50% or more. This is one part of the list.

Target: Bcl-2-like protein 10 (Homo sapiens) (UniProt Q9HD36)
Test: Phenotype converters, Bcl-B/TR3 peptide binding displacement, primary biochemical FP (AID 1240);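 also: 0% = Bcl-B with tracer peptide and DMSO and 100% = tracer peptide lacking Bcl-B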
Conditions: GST-Bcl-B / FITC-TR3 peptide fluorescence polarization; stronger effect = higher value; compound at 3.75 mg/L

Sequence of UniProt Q9HD36 (Q9HD36 whole entry, looked up): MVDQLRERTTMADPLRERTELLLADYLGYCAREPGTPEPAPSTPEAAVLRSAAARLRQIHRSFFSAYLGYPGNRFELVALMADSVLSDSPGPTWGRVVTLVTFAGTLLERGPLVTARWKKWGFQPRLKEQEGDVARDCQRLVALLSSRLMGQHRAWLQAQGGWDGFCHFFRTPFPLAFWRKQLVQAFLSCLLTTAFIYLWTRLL

SMILES	displacement [%]
COc1ccc(N2C(=O)/C(=C/c3cc([N+](=O)[O-])cc(OC)c3O)SC2=S)cc1	1.4
CCOc1ccccc1NC(=O)CN(c1cc(Cl)cc(Cl)c1)S(C)(=O)=O	-1.3
CC1=C(C(=O)OCc2ccccc2)C(c2ccc(C)s2)NC(=O)N1 (centres undefined)	-13.2
O=C1OCC2=C1C(c1ccc3c(c1)OCO3)Sc1ccccc1N2 (centres undefined)	-5.1
COc1ccccc1/C=C(\C#N)C(N)=O	-10
COc1cccc(-n2c(O)c(/C=C3\C(C)=Nc4ccccc43)c(=O)[nH]c2=O)c1	16.5
CC(C)CN1C(=O)/C(=C/c2ccc([N+](=O)[O-])cc2)SC1=S	11.2
O=[N+]([O-])c1ccccc1C1N(c2ccccc2)CCN1c1ccccc1	1.4
CCSc1nnc2n(-c3ccc(C)cc3)c(=O)c3c4c(sc3n12)CCCC4	3.6
CCOc1ccccc1C1C(C(=O)OCc2ccc(OC)cc2)=C(C)NC2=C1C(=O)CC(C)(C)C2 (centres undefined)	-3.4
O=C(c1cccc(Cl)c1)N1CCN(Cc2ccccn2)CC1	-14.7
CCOC(=O)c1c(N)sc(C)c1-c1ccc(Cl)cc1	5.1
O=C(NC(N1CCCCC1)C(Cl)(Cl)Cl)c1ccc(Cl)cc1Cl (centres undefined)	15.7
Cn1c(/C=C/c2ccco2)nc2ccccc21	35.7
Cn1c(N)c(/C=N/Nc2ccccc2)c(=O)n(C)c1=O	0.4
COC(=O)CN1C(=O)C(=Cc2cccc(OCc3ccccc3)c2)SC1=S	1.9
C#CCOc1ccc(/C=C2\C(=O)NC(=O)N(c3ccc(C)cc3)C2=O)cc1OC	-1.5
CCOc1ccc(S(=O)(=O)Nc2c(C)n(C)n(-c3ccccc3)c2=O)cc1	12.9
CN1C(=O)/C(=C\c2ccsc2)SC1=S	13.2
CCOC(=O)C1=C(C)NC(C)=C(C(=O)OCC)C1c1ccc(C)cc1	3.2
O=C(CN(c1cccc(Br)c1)S(=O)(=O)c1ccccc1)Nc1ccccc1Cl	4.5
COc1ccc(Cc2cnc(NC(=O)c3ccc(C)cc3)s2)cc1	-1.7

SMILES	displacement [%]
Cc1ccc([N+](=O)[O-])cc1NC(=O)C12CC3CC(CC(C3)C1)C2	1.4
N/C(=N\OC(=O)c1cccs1)c1cccc([N+](=O)[O-])c1	-0.9
Cc1c(N2C(=O)c3cccc([N+](=O)[O-])c3C2=O)c(=O)n(-c2ccccc2)n1C	-1.7
CC(=O)c1ccc(N/C(=N/S(=O)(=O)c2ccccc2)c2ccccc2)cc1	11.1
CCOP(=O)(CC(=O)NNC(=O)Nc1ccccc1)OCC	-6.2
Cc1ccc(CNC(=O)c2cccc([N+](=O)[O-])c2)cc1	13.7
CCc1ccc(C2C(C(=O)OC)=CN(Cc3ccc(C)cc3)C=C2C(=O)OC)s1	4.1
CCOC(=O)C(C(C)=O)(N1CCOCC1)N1CCOCC1	-1.8
CN1C(=O)/C(=C\c2cc(Cl)c(O)c(Cl)c2)SC1=S	8.3
C#CCOc1c(I)cc(I)cc1/C=N/NC(N)=S	-14.2
Cc1cccc(NC(=O)CN(c2ccc(Br)cc2)S(C)(=O)=O)c1	23.9
Cc1cccc(C(=O)NCCc2nc3ccccc3[nH]2)c1	-9.3
C/C(=N/NC(=O)c1sc2cc(F)ccc2c1Cl)c1cccs1	132
Cc1cc(C(=O)Nc2nc(-c3ccc(Cl)cc3)cs2)ccc1[N+](=O)[O-]	-6.2
CC(C)(Cc1ccc(O)cc1)NC(=O)c1ccccc1	14.1
O=C1/C(=C/c2ccc(-c3ccccc3[N+](=O)[O-])o2)SC(=Nc2ccccc2)N1c1ccccc1	3.9
Cc1ccc(S(=O)(=O)N(Cc2ccccc2)Cc2ccco2)cc1	4.3
CC(C)C12CN3CC(C(C)C)(CN(C1)C3c1cccc([N+](=O)[O-])c1)C2=O (centres undefined)	-6.4
COC(=O)c1c(NC(=O)/C=C/c2ccco2)sc2c1CCC(C)C2 (centres undefined)	23.7
CCOc1ccc(C(=O)Nc2cc(-c3nc4ccccc4s3)ccc2C)cc1Cl	6.8
COc1cc(C=O)ccc1OCCOc1ccc(C)c(C)c1	11.6
CCCOc1ccc(C(=O)Nc2sc(C)cc2C(=O)OC)cc1	-6.5

SMILES	displacement [%]
CCOc1ccccc1NC(=O)CN(c1ccc(C)cc1)S(=O)(=O)c1ccc(F)cc1	10.7
Cc1n[nH]c(C)c1Sc1ccc(Br)cc1	-9.2
Cc1ccc(-c2cc(C(=O)Nc3ccc(Br)cc3)c3ccccc3n2)o1	0.5
CCC1(C)CC(CC(=O)O)(c2ccc(F)cc2)CCO1 (centres undefined)	-5
CCCOc1ccc(N2C(=O)CC(Nc3ccc(Cl)cc3)C2=O)cc1 (centres undefined)	-3.4
CCn1nc(C(C)C(=O)O)c2ccccc2c1=O (centres undefined)	1.7
COc1ccccc1/C=N/N=C1/NC(=O)C(CC(=O)Nc2ccc(Cl)c(Cl)c2)S1 (centres undefined)	9.4
NC(=O)SCC(=O)Nc1ccc(I)cc1	5.1
COc1ccccc1OCCOc1ccc(/C=C2/SC(=S)N(C)C2=O)cc1	3.9
O=C(COc1ccccc1)Nc1nn[nH]n1	9.5
COc1ccc(C(=O)Nc2ccccc2)cc1NC(C)=O	7.6
O=C(CCc1ccccc1)Nc1ccc(Cc2ccncc2)cc1	7.7
O=C(CSc1nc2sc3c(c2c(=O)[nH]1)CCCC3)NCCCn1ccnc1	0.6
O=C1NC(=S)NC(=O)C1=Cc1cc(Br)c(Sc2ccc(Cl)cc2)o1	-0.9
Cc1onc(-c2c(Cl)cccc2Cl)c1C(=O)Nc1ccc(OCc2ccccc2)cc1	4.6
COc1ccccc1C1SCCN1S(=O)(=O)c1ccc2ccccc2c1 (centres undefined)	-3
O=C1C2C3C=CC(C3=C3CCCC3)C2C(=O)N1c1cccc([N+](=O)[O-])c1 (centres undefined)	1.8
COc1ccc(-c2nnc(NC(=O)Nc3ccc(Cl)c(Cl)c3)s2)cc1	27
O=C(Nc1ccc2ccccc2c1)c1ccc(-c2cccc(Cl)c2)o1	10.2
CCOC(=O)c1c(NC(=O)Cc2ccccc2)sc(C(=O)N2CCCCC2)c1C	-6.6
CC1CCC(C(C)C)C(OC(=O)c2ccco2)C1 (centres undefined)	15.4
CS(=O)(=O)N(CC(=O)NCc1ccccc1)c1ccc(Oc2ccccc2)cc1	7.1

SMILES	displacement [%]
COC(=O)c1ccc(OC(=O)CN2C(=O)c3cccc([N+](=O)[O-])c3C2=O)cc1	-1.7
O=C(NCC1CCCO1)C12CC3CC(CC(C3)C1)C2 (centres undefined)	2.8
CCSc1nnc(N2C(=O)c3ccc(C(=O)c4ccc(C(=O)O)cc4)cc3C2=O)s1	-20.9
COC(=O)c1cc(Cl)c(NC(=O)COc2ccc(C)cc2C(C)(C)C)cc1OC	-11.5
COc1ccc(CC(=O)Nc2ccccc2C(F)(F)F)cc1	-12.6
COC(=O)c1c(N=CN(C)C)c(C#N)c(C)n1-c1ccccc1	3.9
COc1ccc(/C=C2\SC(=S)N(Cc3ccco3)C2=O)cc1	14.2
Cc1cc(C)cc(CC2CC(=O)N(c3cc(C)ccc3C)C2=O)c1 (centres undefined)	5.8
COc1ccc(C(=O)Nc2ccc(Br)c(C)c2)cc1OC	-0.5
N#Cc1c(-c2ccccc2)cc(-c2ccc(Br)cc2)nc1N	8.8
O=C(CN1CCCC1=O)NC1C2CC3CC(C2)CC1C3 (centres undefined)	-3.3
CC(C)(C)Nc1nc(Nc2ccccc2)nc(Nc2ccccc2)n1	8.6
Nc1ccc(C(=O)NCCNCCNC(=O)c2ccc(N)cc2)cc1	8
COC(=O)CSc1nnc2n(-c3ccc(OC)cc3)c(=O)c3c4c(sc3n12)CCCC4	5.6
CC(C)OC(=O)c1c(-c2ccc(F)cc2)csc1N	1.3
C#Cc1cccc(NC(=O)c2ccc(OC)cc2)c1	-6.4
COc1cc(C(=O)Nc2cccc(-c3nc4ncccc4o3)c2)ccc1OCc1ccc(Cl)cc1	-2.1
C/C(=N\N=C\c1cccnc1)C1C(=O)c2ccccc2C1=O	31.4
COc1cc(/C=C2/SC(=S)NC2=O)ccc1OC(=O)c1ccc(Cl)cc1	11.4
Nc1c(Cl)cc(-c2nc3ccccc3o2)cc1Cl	10.5
CN(C)/C=C/C=C/C(=O)c1ccc(/C=C/C=C/N(C)C)o1	36.1
Cc1ccc(C(=O)Nc2ccc(Cl)cc2)o1	-4.4

SMILES	displacement [%]
C=CCc1cccc(/C=N/NC(=O)CSc2nc3ccccc3n2CC)c1O	0.4
O=C(O)c1ccc(Nc2nc(-c3ccccc3)c3cc(Cl)ccc3n2)cc1	1.1
COC(=O)c1ccc(C(=O)OC)c(NC(=O)C(C)Oc2ccc(Cl)cc2C)c1 (centres undefined)	1
Cc1no[n+]([O-])c1COc1ccccc1/C=C1\SC(=S)NC1=O	-34.3
COc1ccc(S(=O)(=O)N2CCN(Cc3cccc(Oc4ccccc4)c3)CC2)cc1	11.6
O=C(Nc1cccc(C(=O)Nc2cccc(Cl)c2)c1)c1ccc(F)cc1	-2.6
COc1ccc(OC(C)C(=O)Nc2ccc3c(c2)OCCO3)cc1 (centres undefined)	-4.5
COc1ccc(N(CC(=O)N/N=C/c2cc(Br)c(C)o2)S(=O)(=O)c2ccccc2[N+](=O)[O-])c(OC)c1	-25.5
COc1ccc(/C=N\NC(=O)c2c(C)nc3cc(C)ccn23)c(OC)c1	0.6
CN(C)CCNC(=O)C(NC(=O)c1ccccc1)C12CC3CC(CC(C3)C1)C2 (centres undefined)	-1.7
O=C(NCCCN1CCOCC1)c1ccc(Cl)cc1Cl	1.2
O=S(=O)(c1ccc(Oc2ccccc2)cc1)N1CCCCC1	-7.3
COC(=O)c1c(C)oc2cc(Br)c(OC(=O)c3ccco3)cc12	11.2
COc1ccccc1N1CCN(/N=C/c2ccccc2C(=O)O)CC1	2.5
CC1(C)Cc2c(sc(N)c2C#N)C(C)(C)N1	0.7
O=C(CC1SC(=Nc2ccccc2)N(c2ccccc2)C1=O)Nc1cccc(C(=O)O)c1 (centres undefined)	-1
CC(C)(C)C1CCc2c(sc3[nH]c(=S)[nH]c(=O)c23)C1 (centres undefined)	-14.6
O=C(c1ccc2c(c1)OCO2)N1CCOCC1	0.5
COc1cc(/C=N/NS(=O)(=O)c2ccc(Cl)cc2)cc(OC)c1OC	-7.4
COP(=O)(OC)C(Nc1cccc([N+](=O)[O-])c1)c1cccc([N+](=O)[O-])c1 (centres undefined)	-15.4
O=C(O)c1cccc(S(=O)(=O)N2CCCCCC2)c1	-4.5
